We go through 87 molecules from publication PMC4336329 (PLoS ONE, 2015).

About 14,000 (4.5%) of roughly 310,000 compounds showed an effect of 50% or more. The effect is printed as a negative number. Some of the results follow.
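Note: peak tail current of the secondary pulse compared with the same well before compound.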

The test deals with human ether-à-go-go-related gene (hERG) potassium channel (human, UniProt Q12809). As to the kind of experiment: primary screen, population patch clamp on CHO cells stably expressing hERG.
human ether-à-go-go-related gene (hERG) potassium channel, sequence (Q12809 whole entry, looked up): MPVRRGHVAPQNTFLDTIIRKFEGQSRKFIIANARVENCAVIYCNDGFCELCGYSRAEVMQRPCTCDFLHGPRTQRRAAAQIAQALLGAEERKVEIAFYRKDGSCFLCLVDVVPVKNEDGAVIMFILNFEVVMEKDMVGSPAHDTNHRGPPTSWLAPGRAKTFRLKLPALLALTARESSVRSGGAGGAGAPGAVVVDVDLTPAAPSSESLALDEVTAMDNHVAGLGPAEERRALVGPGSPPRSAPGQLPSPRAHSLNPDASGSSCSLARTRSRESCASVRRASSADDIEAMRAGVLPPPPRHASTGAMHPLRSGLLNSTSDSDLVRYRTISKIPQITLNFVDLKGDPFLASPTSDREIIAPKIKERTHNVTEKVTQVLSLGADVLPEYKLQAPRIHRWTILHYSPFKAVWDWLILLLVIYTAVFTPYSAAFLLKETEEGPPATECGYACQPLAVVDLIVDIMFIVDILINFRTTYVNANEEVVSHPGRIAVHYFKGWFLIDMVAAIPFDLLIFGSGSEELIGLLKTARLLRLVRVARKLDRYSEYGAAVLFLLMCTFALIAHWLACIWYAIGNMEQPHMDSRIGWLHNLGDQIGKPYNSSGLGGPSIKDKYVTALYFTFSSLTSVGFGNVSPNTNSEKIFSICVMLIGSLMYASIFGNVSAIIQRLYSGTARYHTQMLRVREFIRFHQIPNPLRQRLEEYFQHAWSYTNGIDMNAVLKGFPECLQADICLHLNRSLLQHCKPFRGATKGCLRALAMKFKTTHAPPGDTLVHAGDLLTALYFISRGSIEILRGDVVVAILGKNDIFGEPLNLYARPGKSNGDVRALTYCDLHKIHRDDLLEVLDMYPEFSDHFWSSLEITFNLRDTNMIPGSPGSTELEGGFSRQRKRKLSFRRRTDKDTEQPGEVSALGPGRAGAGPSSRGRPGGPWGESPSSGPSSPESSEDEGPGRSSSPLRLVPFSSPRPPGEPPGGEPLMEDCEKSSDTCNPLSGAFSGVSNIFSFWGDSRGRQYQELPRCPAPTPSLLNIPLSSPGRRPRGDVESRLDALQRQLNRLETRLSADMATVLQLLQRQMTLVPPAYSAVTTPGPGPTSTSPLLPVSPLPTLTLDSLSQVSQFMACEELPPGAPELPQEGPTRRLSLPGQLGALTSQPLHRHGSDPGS
`CC(=O)Nc1ccc2nc(C3CCCCC3)[nH]c2c1`: the “hERG current change (%, negative = inhibition) at 10uM” value was determined as 9.34%. Under `COc1ccc(CCNC(=O)c2ccco2)cc1` stands 9.1%; under `Cc1ccccc1OCc1nnc(SCC(=O)Nc2ccc(N3CCOCC3)c(Cl)c2)n1C`, 3.63%; under `CCOc1ccc(N2C(=O)CC(N3CCOCC3)C2=O)cc1` (stereo not drawn), 4.73%. With `CCCCNC(=O)c1ccc(Cn2c(=S)[nH]c3c([nH]c4ccc(OC)cc43)c2=O)cc1`, the “hERG current change (%, negative = inhibition) at 10uM” value is on record as -3.63%. On to `CCC(C)N(C(=O)Cn1nc(C)c([N+](=O)[O-])c1C)C1CCS(=O)(=O)C1` (stereo not drawn), for which the “hERG current change (%, negative = inhibition) at 10uM” value was -2.13%.

For the molecule `CCCn1cc(S(=O)(=O)c2ccc(F)cc2)c(=O)c2cc(OCC)ccc21`, the “hERG current change (%, negative = inhibition) at 10uM” value is -38.6%.

On to `Cc1c(Cl)cccc1NC(=O)CCN1CCCCC1`, for which the “hERG current change (%, negative = inhibition) at 10uM” value is on record as -9.25%. Take `CCOc1cc(NC(=O)c2cccs2)c(OCC)cc1NC(=O)c1ccco1`: the “hERG current change (%, negative = inhibition) at 10uM” value came to 20.4%.

Turning to `Cc1nnc(NC2=NCCCCC2)o1`, the “hERG current change (%, negative = inhibition) at 10uM” value was determined as 7.75%. Under `CN(C)S(=O)(=O)c1cccc(NC(=O)/C=C/c2ccc(S(=O)(=O)N3CCOCC3)cc2)c1` stands 6.02%. Turning to `O/N=C(\c1ccc2c(c1)OCCO2)C1CCCCC1`, the “hERG current change (%, negative = inhibition) at 10uM” value amounted to 10.3%. As to `COc1cc(C(=O)NNC(=O)COc2ccc(C)cc2)ccc1OCC(=O)N1CCOCC1`, the “hERG current change (%, negative = inhibition) at 10uM” value amounted to 2.68%. With `COc1ccc2nc(N3CCCCC3)c(/C=C3\SC(=S)NC3=O)cc2c1`, the “hERG current change (%, negative = inhibition) at 10uM” value stood at 21.7%.

For `COc1cccc(OC)c1C(=O)NC(=S)NCc1ccco1`, the “hERG current change (%, negative = inhibition) at 10uM” value stood at 18.2%. Under `CCc1ccc(C(=O)CSc2nc3ccccc3c(=O)[nH]2)cc1` stands -5.04%; under `Cn1cccc1Cc1nnc(SCC(N)=O)n1CCc1ccccc1`, -6.33%; under `CN(Cc1c(F)cccc1Cl)C(=O)c1cnc2ccccc2n1`, -0.845%. Under `CCc1ccc(NC2Nc3cc(C)nn3S2)cc1` (stereo not drawn) stands 8.3%; under `COC(=O)Cc1c(C)nc2nc(NCc3cccc([N+](=O)[O-])c3)[nH]n2c1=O`, 2.49%. For the molecule `Cc1c(C(=O)N2CCC(C)CC2)oc2ccc3c(c12)C(O)CC1(CCCCC1)O3` (stereo not drawn), the “hERG current change (%, negative = inhibition) at 10uM” value came out at 17%. For `Cc1c(N=Cc2cccnc2)c(=O)n(-c2ccccc2)n1C`, the “hERG current change (%, negative = inhibition) at 10uM” value is 2.93%. As for `N=C1C(c2ccccc2)=C(O)CN1c1cccc(S(=O)(=O)N2CCCCC2)c1`, the “hERG current change (%, negative = inhibition) at 10uM” value stood at 7.36%.

Consider `Cc1cccc(C(=O)Nc2cccc(NC(=O)c3ccccc3)c2)c1`, for which the “hERG current change (%, negative = inhibition) at 10uM” value was -17.4%. `Oc1ccccc1-c1cc(C(F)(F)F)nc(-c2ccccc2)n1`: the “hERG current change (%, negative = inhibition) at 10uM” value stood at 14.8%. In the case of `COc1ccc(N(CC(=O)Nc2cc(C)ccc2C)S(=O)(=O)c2ccccc2[N+](=O)[O-])c(OC)c1`, the “hERG current change (%, negative = inhibition) at 10uM” value came to 7.58%. To `O=C(CCS(=O)(=O)c1ccccc1)Nc1ccccc1F` belongs 17.5%; to `COc1cccc(C(=O)N2CCN(c3ncccn3)CC2)c1`, -30.8%; to `O=C(OCCCN1C(=O)c2ccccc2C1=O)c1ccco1`, -5.16%. Take `C[C@@H](NC(=O)c1[nH]cnc1C(=O)Nc1ccon1)c1ccccc1`: the “hERG current change (%, negative = inhibition) at 10uM” value is given as -1.13%. Under `O=C(CN1CCN(S(=O)(=O)c2ccc3ccccc3c2)CC1)Nc1ccc(N2CCOCC2)cc1` stands 4.94%. On to `C=CCc1cccc(Cl)c1OCCON1C(=O)CCC1=O`, for which the “hERG current change (%, negative = inhibition) at 10uM” value is on record as -2.1%. To `Cc1nn(Cc2ccccc2Cl)c(C)c1NC(=O)c1nc2ncccn2n1` belongs 16.9%.

As to `COc1ccc(NC(=O)OCCn2c([N+](=O)[O-])cnc2C)cc1`, the “hERG current change (%, negative = inhibition) at 10uM” value is listed as 3.85%. To `CCOC(=O)CCn1cc(F)c(=O)[nH]c1=O` belongs 22%; to `COc1ccccc1N1CCN(S(=O)(=O)c2cnc[nH]2)CC1`, -0.799%; to `C=Cn1cc[n+](CC(=O)c2ccc(OC)c(OC)c2)c1.[Br-]`, 4.74%. Under `COc1ccc(N2C(=O)C3C(C2=O)C2C=CC3C23CC3)c(OC)c1` (stereo not drawn) stands 16.4%.

`CC(C(c1ccc2c(c1)OCO2)c1c(N)n(C)c(=O)n(C)c1=O)[N+](=O)[O-]` (stereo not drawn): the “hERG current change (%, negative = inhibition) at 10uM” value is 4.36%. To `CSc1ccc(S(=O)(=O)NCCOc2ccccc2C)cc1` belongs -2.68%. Turning to `O=C(CSc1ccc(-c2cccc([N+](=O)[O-])c2)nn1)N1CCCC1`, the “hERG current change (%, negative = inhibition) at 10uM” value is on record as -24.7%. Under `CCCCc1ncc(CN2CCN(Cc3ccc(C)cc3)C(CCO)C2)[nH]1` (stereo not drawn) stands -57.9%; under `O=C(CNC(=O)C12CC3CC(CC(C3)C1)C2)OCC(=O)N1CCCCC1`, -0.93%; under `Cc1cc(NC(=O)CCN2C(=O)C3C4C=CC(C4)C3C2=O)ccc1Br` (stereo not drawn), -27.4%.

`Clc1ccc(-c2cnc3ccccc3n2)cc1`: the “hERG current change (%, negative = inhibition) at 10uM” value is 9.07%. To `c1ccc(CSc2ccc(-c3ccccn3)nn2)nc1` belongs 5.33%; to `O=C(NCCCN1CCCC1=O)c1cccc(S(=O)(=O)Nc2ccc(F)cc2)c1`, -24.5%. Under `C[C@@H]1O[C@@H](O[C@H]2C[C@@H](O)[C@]3(CO)[C@H]4[C@H](O)C[C@]5(C)[C@@H](C6COC(=O)C6)CC[C@]5(O)[C@@H]4CC[C@]3(O)C2)[C@H](O)[C@H](O)[C@H]1O` (stereo partly drawn) stands 5.57%; under `CCOc1ccc(/C=C2\SC(=S)N(CC(=O)Nc3ccccn3)C2=O)cc1`, -3.47%; under `O=C(NC1CCCCC1)NC1(C(=O)N2CCN3CCCC3C2)CCCCC1` (stereo not drawn), 3.18%.

As for `O=C(O)CCCCCNCc1ccncc1`, the “hERG current change (%, negative = inhibition) at 10uM” value is listed as -7.88%. For `O=C(C1=C[C@H](c2csc3ccccc23)C[C@H](OCc2ccc(CO)cc2)O1)N1CCN(Cc2ccc3c(c2)OCO3)CC1`, the “hERG current change (%, negative = inhibition) at 10uM” value amounted to 12.4%. Regarding `C=C(C)n1c(=O)n(Cc2ccccc2C)c2ccccc21`, the “hERG current change (%, negative = inhibition) at 10uM” value is -13%. Take `O=C1Nc2ccc(Br)cc2C1(O)c1ccc(F)cc1` (stereo not drawn): the “hERG current change (%, negative = inhibition) at 10uM” value was found to be 7%.

Turning to `O=[N+]([O-])c1cccc(-c2nc(Oc3ccc(Cl)cc3)c3ccccc3n2)c1`, the “hERG current change (%, negative = inhibition) at 10uM” value is given as 8.2%.

Consider `O=C(Nc1cccc(-c2ccc(N3CCOCC3)nn2)c1)c1ccccc1Cl`, for which the “hERG current change (%, negative = inhibition) at 10uM” value is on record as 27%. To `C#CCN1C(=O)C(O)(CC(=O)/C=C/c2ccco2)c2ccccc21` (stereo not drawn) belongs 9.86%.

Turning to `c1ccc(-c2nnc(SCc3nc4ccccc4[nH]3)n2Cc2ccco2)cc1`, the “hERG current change (%, negative = inhibition) at 10uM” value is listed as -22.4%. To `CCCCNC(=O)Nc1c(C(=O)OCC)[nH]c2ccccc12` belongs 6.83%. With `COc1cc(NC(=O)C/C(C)=N/NC(=O)c2cccc(O)c2)c(OC)cc1Cl`, the “hERG current change (%, negative = inhibition) at 10uM” value is -8.16%. To `Cc1ccc(-n2ncc3c2CC(C)(C)CC3NC(=O)c2cc[n+]([O-])cc2)cc1` (stereo not drawn) belongs -75.4%; to `CCCN(CC1CC1)C(=O)COC(=O)c1oc2ccc(OCC)cc2c1C`, -27.8%. To `O=C(NNC(=S)Nc1ccc(F)cc1)c1cccc([N+](=O)[O-])c1` belongs 18.1%; to `CCCSc1nnc(Cc2cc(=O)[nH]c(=O)[nH]2)n1-c1cc(C)ccc1C`, 16.5%. For `COc1cc(C(C(=O)NC(C)(C)C)N(C(=O)CNC(=O)c2cccs2)c2ccccc2)cc(OC)c1OC` (stereo not drawn), the “hERG current change (%, negative = inhibition) at 10uM” value is 19.4%.

As to `O=C(NCC1OCCCN1S(=O)(=O)c1ccc(F)cc1)C(=O)NC1CCCC1` (stereo not drawn), the “hERG current change (%, negative = inhibition) at 10uM” value was -15.8%. Take `COc1ccc(C(C)=O)cc1CN(c1ccccc1OC)S(=O)(=O)c1cccs1`: the “hERG current change (%, negative = inhibition) at 10uM” value was found to be 7.7%.

In the case of `CCCOc1cccc(C(=O)NCCNC(=O)c2cnccn2)c1`, the “hERG current change (%, negative = inhibition) at 10uM” value turned out to be 11.6%.

Consider `Cc1cccc(OCCNc2ccc(C(F)(F)F)cc2[N+](=O)[O-])c1`, for which the “hERG current change (%, negative = inhibition) at 10uM” value was 15.4%. To `Cc1nnc(SCc2ccc([N+](=O)[O-])cc2)o1` belongs -12.9%. To `Cc1cc(C)nc(SCc2cnc(C)nc2N)n1` belongs 21.6%; to `COc1ccc(OC)c(NC(=O)c2ccc(N3C(=O)C4CC=C(C)CC4C3=O)cc2)c1` (stereo not drawn), 3.31%; to `C=CCN(c1ccc(C(=O)Nc2cc(C)cc(C)c2)cc1)S(C)(=O)=O`, -12.7%.

As for `Cc1c(NC(=O)COc2ccc3ccc(=O)oc3c2)c(=O)n(-c2ccccc2)n1C`, the “hERG current change (%, negative = inhibition) at 10uM” value was -4.19%. Under `C1COCCO1.COc1ccc(NS(=O)(=O)c2ccc(N3CCOCC3)c(NC(=O)c3ccccc3Cl)c2)cc1` stands 9.22%; under `Cc1cc(N)n(-c2ccc(S(=O)(=O)c3ccc(C(C)C)cc3)cc2)n1`, 4.09%; under `CCCC1(C(=O)OCC)NC(c2ccc(O)cc2)C2C(=O)N(c3cccc(C(C)=O)c3)C(=O)C21` (stereo not drawn), 11.2%.

`O=C(CN1C(=O)c2ccccc2C1=O)Nc1nnc(C2CCCO2)s1` (stereo not drawn): the “hERG current change (%, negative = inhibition) at 10uM” value came to 16.9%. For `CC(=O)CSc1nnc(C(F)(F)F)n1C`, the “hERG current change (%, negative = inhibition) at 10uM” value amounted to 14.4%. To `COc1ccc(NC(=O)c2ccccc2NC(=O)c2ccco2)c(OC)c1` belongs -73.4%; to `COc1ccc(CN2CCCC(CO)(Cc3ccc(F)cc3F)C2)cc1` (stereo not drawn), 6.12%; to `O=C(c1cccc(C(=O)N2CCN(Cc3ccccc3)CC2)c1)N1CCN(Cc2ccccc2)CC1`, -17.2%. To `CCC1NC(C(=O)O)Cc2c1[nH]c1ccccc21` (stereo not drawn) belongs 4.66%; to `Cc1ccc(-c2n[nH]c(=S)c3ccccc23)cc1`, -2.04%. To `CC12CCC(=O)N1C(C(=O)Nc1nc3ccc(Cl)cc3s1)CS2` (stereo not drawn) belongs -42.3%. Take `CC1N(O)C2CCCCCC2N1O` (stereo not drawn): the “hERG current change (%, negative = inhibition) at 10uM” value turned out to be 17.6%. Under `CCC1=NN(C(=O)Cc2ccc([N+](=O)[O-])cc2)C(O)(C(F)(F)F)C1` (stereo not drawn) stands -13.3%.
